# Experimental data published in the supplement of paper PMC4967469.
# Lines with a small IC50 respond at low doses; a fit beyond the top or the lowest dose is shown as a bound at that dose. AUC, from the same fit, is the share of area under the viability curve across the 256-fold dose range; the more sensitive the line, the further below 1. For some of these results: An inferred top dose was derived from the fitted curves, not read from the paper. For some of these results: Where an entry number is given, a second screen of the drug exists; the two often differ.
# Legend:
# Assay in all cases: Viability of human cancer cell lines after 72 h of drug (GDSC screen)
# (5Z)-7-Oxozeaenol = compound: COc1cc(O)c2c(c1)/C=C/C[C@H](O)[C@H](O)C(=O)/C=C\C[C@H](C)OC2=O [(5Z)-7-Oxozeaenol]; conditions: top dose 10 µM; top dose inferred
# Protocol: (§1)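 Human cancer cell lines in 384-well plates, medium with 10% serum, drug for 72 h over a 256-fold dose range (nine 2-fold or five 4-fold steps up to the top dose). Adherent lines were fixed and stained with the nucleic acid dye Syto60, suspension lines read with resazurin; signal relative to control wells, capped at 0 and 100%. One two-parameter sigmoid per drug and line, fitted in a mixed model over all curves with the slope shared within a line.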
# Cytarabine = compound: Nc1ccn([C@@H]2O[C@H](CO)[C@@H](O)[C@@H]2O)c(=O)n1 [Cytarabine]; conditions: top dose 2 µM
# Protocol: as §1
# Zibotentan = compound: COc1nc(C)cnc1NS(=O)(=O)c1cccnc1-c1ccc(-c2nnco2)cc1 [Zibotentan]; conditions: top dose 20 µM; top dose inferred
# Protocol: as §1
# KU-55933 = compound: O=c1cc(-c2cccc3c2Sc2ccccc2S3)oc(N2CCOCC2)c1 [KU-55933]; conditions: top dose 10 µM
# Protocol: as §1
# ABT-869 = compound: Cc1ccc(F)c(NC(=O)Nc2ccc(-c3cccc4[nH]nc(N)c34)cc2)c1 [ABT-869]; conditions: top dose 1.024 µM; top dose inferred
# Protocol: as §1
# CP466722 = compound: COc1cc2ncnc(-n3nc(-c4ccccn4)nc3N)c2cc1OC [CP466722]; conditions: top dose 16 µM; top dose inferred
# Protocol: as §1
# CHIR-99021 = compound: Cc1cnc(-c2cnc(NCCNc3ccc(C#N)cn3)nc2-c2ccc(Cl)cc2Cl)[nH]1 [CHIR-99021]
# Protocol: as §1
# MPS-1-IN-1 = compound: COc1cc(N2CCC(O)CC2)ccc1Nc1cc(Nc2ccccc2S(=O)(=O)C(C)C)c2cc[nH]c2n1 [MPS-1-IN-1]; conditions: top dose 20 µM; top dose inferred
# Protocol: as §1
# Thapsigargin = compound: C/C=C(/C)C(=O)O[C@H]1C(C)=C2[C@H]([C@@H]1OC(=O)CCCCCCC)[C@@](C)(OC(C)=O)C[C@H](OC(=O)CCC)[C@@]1(O)[C@H]2OC(=O)[C@@]1(C)O [Thapsigargin]; conditions: top dose 0.512 µM; top dose inferred
# Protocol: as §1
# GSK269962A = compound: CCn1c(-c2nonc2N)nc2cnc(Oc3cccc(NC(=O)c4ccc(OCCN5CCOCC5)cc4)c3)cc21 [GSK269962A]; conditions: top dose inferred
# Protocol: as §1
# QL-X-138 = compound: C=CC(=O)Nc1cc(-n2c(=O)ccc3cnc4ccc(-c5cn[nH]c5)cc4c32)ccc1C [QL-X-138]; conditions: top dose 10.24 µM; top dose inferred
# Protocol: as §1
# ABT-888 = compound: C[C@]1(c2nc3c(C(N)=O)cccc3[nH]2)CCCN1 [ABT-888]; conditions: top dose 5 µM; top dose inferred
# Protocol: as §1
# [1] = top dose 2.56 µM, screen: GDSC drug entry 154
# [2] = top dose 10 µM, screen: GDSC drug entry 1241, top dose inferred
# [3] = top dose 5 µM, screen: GDSC drug entry 1192
# [4] = top dose 2.5 µM, screen: GDSC drug entry 127
Cell Line,AUC ((5Z)-7-Oxozeaenol),IC50 ((5Z)-7-Oxozeaenol),AUC (Cytarabine),IC50 (Cytarabine),AUC (Zibotentan),IC50 (Zibotentan),AUC (KU-55933),IC50 (KU-55933),AUC (ABT-869),IC50 (ABT-869),AUC (CP466722),IC50 (CP466722),AUC (CHIR-99021; [1]),IC50 (CHIR-99021; [1]),AUC (CHIR-99021; [2]),IC50 (CHIR-99021; [2]),AUC (MPS-1-IN-1),IC50 (MPS-1-IN-1),AUC (Thapsigargin),IC50 (Thapsigargin),AUC (GSK269962A; [3]),IC50 (GSK269962A; [3]),AUC (QL-X-138),IC50 (QL-X-138),AUC (ABT-888),IC50 (ABT-888),AUC (GSK269962A; [4]),IC50 (GSK269962A; [4])
"CS1 (bone, adherent)",0.579,1.05 µM,0.751,0.729 µM,0.978,> 20 µM,0.963,> 10 µM,0.984,> 1.02 µM,0.698,3.86 µM,0.962,> 2.56 µM,0.915,> 10 µM,0.922,> 20 µM,0.365,0.0129 µM,0.892,> 5 µM,0.463,0.5 µM,0.983,> 5 µM,–,–
"Ca9-22 (head and neck, adherent)",0.39,0.319 µM,0.655,0.324 µM,0.986,> 20 µM,0.918,> 10 µM,0.984,> 1.02 µM,0.899,> 16 µM,0.984,> 2.56 µM,0.962,> 10 µM,0.891,> 20 µM,0.362,0.0137 µM,0.925,> 5 µM,0.797,4.42 µM,0.977,> 5 µM,–,–
"CaR-1 (large intestine, adherent)",0.659,2.17 µM,0.939,> 2 µM,0.977,> 20 µM,0.935,> 10 µM,0.967,> 1.02 µM,0.85,> 16 µM,0.976,> 2.56 µM,0.968,> 10 µM,0.975,> 20 µM,0.395,0.0143 µM,0.822,> 5 µM,0.864,> 10.2 µM,0.968,> 5 µM,–,–
"Calu-3 (lung adenocarcinoma, adherent)",0.824,8.07 µM,0.885,> 2 µM,0.983,> 20 µM,0.978,> 10 µM,0.983,> 1.02 µM,0.807,10.9 µM,0.983,> 2.56 µM,0.977,> 10 µM,0.937,> 20 µM,0.784,0.279 µM,0.906,> 5 µM,0.728,3.43 µM,0.969,> 5 µM,–,–
"Caov-4 (ovary, adherent)",0.806,8.28 µM,0.674,0.482 µM,0.977,> 20 µM,0.98,> 10 µM,0.98,> 1.02 µM,0.811,14 µM,0.969,> 2.56 µM,0.908,> 10 µM,0.889,> 20 µM,0.604,0.0706 µM,0.934,> 5 µM,0.818,9.65 µM,0.98,> 5 µM,–,–
"Capan-2 (pancreas, adherent)",0.802,6.17 µM,0.885,> 2 µM,0.98,> 20 µM,0.971,> 10 µM,0.973,> 1.02 µM,0.958,> 16 µM,0.982,> 2.56 µM,0.916,> 10 µM,0.779,10 µM,0.112,< 0.002 µM,0.983,> 5 µM,0.877,> 10.2 µM,0.985,> 5 µM,–,–
"D-542MG (glioma, adherent)",0.772,4.72 µM,0.857,> 2 µM,0.984,> 20 µM,0.984,> 10 µM,0.982,> 1.02 µM,0.957,> 16 µM,0.96,> 2.56 µM,0.891,> 10 µM,0.904,> 20 µM,0.343,0.0106 µM,0.91,> 5 µM,0.916,> 10.2 µM,0.984,> 5 µM,0.885,> 2.5 µM
"DAN-G (pancreas, adherent)",0.83,5.24 µM,0.901,> 2 µM,0.991,> 20 µM,0.989,> 10 µM,0.991,> 1.02 µM,0.91,> 16 µM,0.992,> 2.56 µM,0.979,> 10 µM,0.934,> 20 µM,0.941,> 0.512 µM,0.953,> 5 µM,0.891,9.31 µM,0.991,> 5 µM,–,–
"DBTRG-05MG (glioma, adherent)",0.434,0.4 µM,0.848,1.89 µM,0.982,> 20 µM,0.984,> 10 µM,0.98,> 1.02 µM,0.965,> 16 µM,0.911,> 2.56 µM,0.918,> 10 µM,0.859,> 20 µM,0.322,0.00926 µM,0.909,> 5 µM,0.787,5.28 µM,0.94,> 5 µM,–,–
"DK-MG (glioma, adherent)",0.566,1.03 µM,0.897,> 2 µM,0.975,> 20 µM,0.949,> 10 µM,0.8,0.812 µM,0.525,1.21 µM,0.967,> 2.56 µM,0.923,> 10 µM,0.87,> 20 µM,0.499,0.0319 µM,0.87,> 5 µM,0.509,0.684 µM,0.978,> 5 µM,–,–
